Measurements from US20070134261A1, “Effectors of innate immunity” (priority 2001, published 2007).
Residues, ends and D or L forms follow the SMILES beside them. No end group written: not given here.

How the values were obtained:
RAW 264.7 cells [1] = assay: Confirmation of array data: Northern blot, Western blot, Griess reagent NO (Table 59); type: cell-based, mouse; conditions: S. typhimurium LPS 100 ng/ml, S. aureus LTA 1 μg/ml, CpG DNA 1 μM, ± standard error
Method: To confirm and assess the functional significance of these changes, the levels of selected mRNAs and proteins were assessed and quantified by densitometry. Northern blots using a CD14, vimentin, and tristetraprolin-specific probe confirmed similar expression after stimulation with all 3 bacterial products (Table 60). […] Western blot analysis confirmed the preferential stimulation of leukaemia inhibitory factor (LIF, a member of the IL-6 family of cytokines) by CpG (Table 59). […] The analysis was expanded to a more clinically relevant ex vivo system, by examining the ability of the bacterial elements to stimulate pro-inflammatory cytokine production in whole human blood. […] CpG also stimulated production of these cytokines, albeit to much lower levels, confirming in part the cell line data.

[2] = tested on: RAW 264.7 mouse macrophage cells; assay: TNF-α production induced by S. aureus LTA in RAW 264.7 cells; type: cell-based
Method: The ability of compounds to neutralize the stimulation of immune cells by both Gram-negative and Gram-positive bacterial products was tested. Bacterial products stimulate cells of the immune system to produce inflammatory cytokines and when unchecked this can lead to sepsis. Initial experiments utilized the murine macrophage cell line RAW 264.7, which was obtained from the American Type Culture Collection, (Manassas, Va.), the human epithelial cell line, A549, and primary macrophages derived from the bone marrow of BALB/c mice (Charles River Laboratories, Wilmington, Mass.). The cells from mouse bone marrow were cultured in 150-mm plates in Dulbecco's modified Eagle medium (DMEM; Life Technologies, Burlington, ON) supplemented with 20% FBS (Sigma Chemical Co, St. Louis, Mo.) and 20% L cell-conditioned medium as a source of M-CSF. Once macrophages were 60-80% confluent, they were deprived of L cell-conditioned medium for 14-16 h to render the cells quiescent and then were subjected to treatments with 100 ng/ml LPS or 100 ng/ml LPS+20 μg/ml peptide for 24 hours. The release of cytokines into the culture supernatant was determined by ELISA (R&D Systems, Minneapolis, Minn.). […] The samples were centrifuged for 5 min at 2000×g, the plasma was collected and then stored at −20° C. until being analyzed for IL-8 by ELISA (R&D Systems). […] Survival was monitored for 48 hours post injection.

RAW 264.7 cells [3] = assay: TNF-α induction by peptides alone in RAW 264.7 cells and bone marrow-derived macrophages; type: cell-based, mouse; conditions: peptide 40 μg/ml, 6 hours
Method: The murine macrophage cell line RAW 264.7, THP-1 cells (human monocytes), a human epithelial cell line (A549), human bronchial epithelial cells (16HBEo14), and whole human blood were used. HBE cells were grown in MEM with Earle's. THP-1 cells were grown and maintained in RPMI 1640 medium. The RAW and A549 cell lines were maintained in DMEM supplemented with 10% fetal calf serum. […] DMEM was aspirated from cells grown overnight and replaced with fresh medium. After incubation of the cells with peptide, the release of chemokines into the culture supernatant was determined by ELISA (R&D Systems, Minneapolis, Minn.).

Compound	TNF-α (RAW 264.7 cells [3]) [pg/mL]	further results
5′-TCATGACGTTCCTGACGTT-3′ (chemistry not given here) [CpG]		Relative levels, CD14 (Northern blot, densitometry) (RAW 264.7 cells [1]; 4 hr, compared to media (1.0)): 1.5 ± 0.3; Relative levels, Tristetraprolin (Northern blot, densitometry) (RAW 264.7 cells [1]; 4 hr, compared to media (1.0)): 9.5 ± 1.5; Relative levels, Vimentin (Northern blot, densitometry) (RAW 264.7 cells [1]; 4 hr, compared to media (1.0)): 1.3 ± 0.07; Relative levels, LIF (western blot, densitometry) (RAW 264.7 cells [1]; 24 hours, compared to media (1.0)): 5.1 ± 1.6; NO formed in the supernatant (nitrite, Griess reagent) (RAW 264.7 cells [1]; 24 hours, untreated 8 ± 1.5): 21 ± 1.5
CC[C@H](C)[C@H](N)C(=O)N[C@@H](CC(C)C)C(=O)N1CCC[C@H]1C(=O)N[C@@H](Cc1c[nH]c2ccccc12)C(=O)N[C@@H](CCCCN)C(=O)N[C@@H](Cc1c[nH]c2ccccc12)C(=O)N1CCC[C@H]1C(=O)N[C@@H](Cc1c[nH]c2ccccc12)C(=O)N[C@@H](Cc1c[nH]c2ccccc12)C(=O)N1CCC[C@H]1C(=O)N[C@@H](Cc1c[nH]c2ccccc12)C(=O)N[C@@H](CCCNC(=N)N)C(=O)N[C@@H](CCCNC(=N)N)C(N)=O [SEQ ID NO: 2]		LTA-induced TNF-α production [2]: reduce
CC[C@H](C)[C@H](NC(=O)[C@H](CCCNC(=N)N)NC(=O)[C@H](CS)NC(=O)[C@H](CC(C)C)NC(=O)[C@@H](N)CC(C)C)C(=O)N[C@H](C(=O)N1CCC[C@H]1C(=O)N[C@H](C(=O)N[C@H](C(=O)N1CCC[C@H]1C(=O)N[C@@H](Cc1c[nH]c2ccccc12)C(=O)N[C@@H](CS)C(=O)N[C@@H](CCCCN)C(=O)O)[C@@H](C)CC)C(C)C)C(C)C [SEQ ID NO: 5] (H-LLCRIVPVIPWCK-OH; N-terminus and C-terminus assumed)	223 ± 45	
CC[C@H](C)[C@H](NC(=O)[C@@H]1CCCN1C(=O)[C@H](CS)NC(=O)[C@H](CCCNC(=N)N)NC(=O)[C@@H](N)CC(C)C)C(=O)N[C@@H](C)C(=O)N1CCC[C@H]1C(=O)N[C@H](C(=O)N[C@H](C(=O)N1CCC[C@H]1C(=O)N[C@H](C(=O)N[C@@H](CS)C(=O)N[C@@H](CCCCN)C(=O)N[C@@H](CCCCN)C(=O)O)C(C)C)[C@@H](C)CC)C(C)C [SEQ ID NO: 6] (H-LRCPIAPVIPVCKK-OH; N-terminus and C-terminus assumed)	297 ± 32	
CC[C@H](C)[C@H](NC(=O)[C@H](CS)NC(=O)[C@H](CCSC)NC(=O)[C@H](CCCNC(=N)N)NC(=O)[C@@H](N)CCCNC(=N)N)C(=O)N[C@@H](CCCCN)C(=O)N[C@H](C(=O)N[C@@H](CS)C(=O)N[C@H](C(=O)N[C@@H](CCCNC(=N)N)C(=O)NCC(=O)N[C@H](C(=O)N[C@@H](CS)C(=O)N[C@@H](CCCNC(=N)N)C(=O)N[C@@H](CCCNC(=N)N)C(=O)N[C@@H](CCCCN)C(=O)N[C@@H](CS)C(=O)N[C@@H](CCCNC(=N)N)C(=O)N[C@@H](CCCCN)C(=O)O)C(C)C)C(C)C)C(C)C [SEQ ID NO: 26] (H-RRMCIKVCVRGVCRRKCRK-OH; N-terminus and C-terminus assumed)	281 ± 34	
CSCC[C@H](NC(=O)[C@H](CO)NC(=O)[C@@H](NC(=O)[C@H](CCCCN)NC(=O)[C@H](Cc1ccccc1)NC(=O)[C@H](CS)NC(=O)[C@H](CO)NC(=O)[C@H](CCCNC(=N)N)NC(=O)[C@@H](N)CCCCN)C(C)C)C(=O)N[C@@H](CCCNC(=N)N)C(=O)NCC(=O)N[C@H](C(=O)N[C@@H](CO)C(=O)N[C@@H](CCCNC(=N)N)C(=O)N[C@@H](CCCNC(=N)N)C(=O)N[C@@H](CCCNC(=N)N)C(=O)N[C@@H](CS)C(=O)N[C@@H](CCCCN)C(=O)O)C(C)C [SEQ ID NO: 27] (H-KRSCFKVSMRGVSRRRCK-OH; N-terminus and C-terminus assumed)	203 ± 42	
CC[C@H](C)[C@H](NC(=O)CNC(=O)[C@H](CCCNC(=N)N)NC(=O)[C@H](CCSC)NC(=O)[C@H](C)NC(=O)[C@@H](NC(=O)[C@H](CCCNC(=N)N)NC(=O)[C@H](CCCCN)NC(=O)[C@@H](NC(=O)[C@H](CS)NC(=O)[C@@H](NC(=O)[C@@H](N)CCCNC(=N)N)[C@@H](C)O)C(C)C)C(C)C)C(=O)N[C@H](C(=O)N[C@@H](CCCNC(=N)N)C(=O)N[C@@H](CCCCN)C(=O)N[C@@H](CCCNC(=N)N)C(=O)N[C@@H](CS)C(=O)N[C@@H](CCCNC(=N)N)C(=O)O)[C@@H](C)CC [SEQ ID NO: 33] (H-RTCVKRVAMRGIIRKRCR-OH; N-terminus and C-terminus assumed)	196 ± 42	
DLPAKRGSAPGST (Cationic peptide) [SEQ ID NO: 12, Formula B cationic peptide]	299 ± 65	
KKSPIAPAIPWSR (Cationic peptide) [SEQ ID NO: 8, Formula A cationic peptide]	166 ± 23	
KWKKWAHSPRKVLTRIFHTALKPISS [SEQ ID NO: 50]	311 ± 144	
KWKRGAHRFMKFLSTIFHTALKPISS [SEQ ID NO: 49]	324 ± 38	
KWKSYAHTIMSPVRLVFHTALKPISS [SEQ ID NO: 54]	346 ± 86	
SLPIKHDRLPATS [SEQ ID NO: 15]	346 ± 41	
